Screen size: about 310,000 compounds; about 2,200 (0.71%) showed an effect of 50% or more. Effects have a minus sign here. Some of the results follow.
target: human ether-à-go-go-related gene (hERG) potassium channel (human, UniProt Q12809); test: primary screen, population patch clamp on CHO cells stably expressing hERG
Sequence (Q12809 whole entry, looked up): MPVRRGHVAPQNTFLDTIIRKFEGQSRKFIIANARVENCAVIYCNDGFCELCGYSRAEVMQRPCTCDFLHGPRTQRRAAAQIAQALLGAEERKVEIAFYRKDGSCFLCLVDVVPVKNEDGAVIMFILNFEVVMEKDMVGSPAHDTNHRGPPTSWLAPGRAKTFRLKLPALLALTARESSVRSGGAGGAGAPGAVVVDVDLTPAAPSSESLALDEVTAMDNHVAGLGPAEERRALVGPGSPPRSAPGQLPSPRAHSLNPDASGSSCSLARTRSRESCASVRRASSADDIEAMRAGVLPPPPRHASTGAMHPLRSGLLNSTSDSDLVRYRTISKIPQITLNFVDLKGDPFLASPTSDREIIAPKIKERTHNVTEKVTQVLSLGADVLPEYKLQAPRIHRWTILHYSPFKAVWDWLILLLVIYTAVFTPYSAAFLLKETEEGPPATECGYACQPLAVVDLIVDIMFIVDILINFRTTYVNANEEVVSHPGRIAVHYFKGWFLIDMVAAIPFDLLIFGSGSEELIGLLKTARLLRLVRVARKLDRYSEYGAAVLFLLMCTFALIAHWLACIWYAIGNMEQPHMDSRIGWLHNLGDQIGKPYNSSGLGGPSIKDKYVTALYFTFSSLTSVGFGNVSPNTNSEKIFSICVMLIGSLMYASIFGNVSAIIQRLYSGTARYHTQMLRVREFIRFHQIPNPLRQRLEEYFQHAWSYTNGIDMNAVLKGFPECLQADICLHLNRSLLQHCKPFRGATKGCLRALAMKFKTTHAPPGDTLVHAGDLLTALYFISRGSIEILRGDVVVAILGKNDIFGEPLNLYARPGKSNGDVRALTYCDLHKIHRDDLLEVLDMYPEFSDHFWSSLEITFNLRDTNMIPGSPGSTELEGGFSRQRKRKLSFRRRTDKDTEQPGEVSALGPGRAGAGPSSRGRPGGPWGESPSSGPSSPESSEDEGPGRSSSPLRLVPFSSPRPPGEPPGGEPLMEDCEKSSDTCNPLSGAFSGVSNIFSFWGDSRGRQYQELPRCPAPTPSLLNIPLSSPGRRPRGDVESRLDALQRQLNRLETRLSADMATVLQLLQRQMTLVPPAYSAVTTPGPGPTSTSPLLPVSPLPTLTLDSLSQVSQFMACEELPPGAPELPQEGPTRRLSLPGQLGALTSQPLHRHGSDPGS

Compound	hERG current change (%, negative = inhibition) at 1uM
CC(C)Oc1ccc2c(c1)OC(c1ccccc1)(C(F)(F)F)NC2=O (centres unmarked)	3.67%
COc1ccccc1C(C)NS(=O)(=O)c1cccs1 (centres unmarked)	14.2%
Cc1cc(C)c(C#N)c(SCCS(=O)(=O)c2ccc(Cl)cc2)n1	0.162%
COC(=O)/C(C#N)=C/c1occc1C	4.47%
CCOC(=O)N1CCN(S(=O)(=O)c2ccc(C(=O)N(CCN(C)C)c3nc4c(C)cccc4s3)cc2)CC1.Cl	9.5%
CCn1c(SCC(=O)Nc2ccc3c(c2)OCO3)nc2ccccc21	14.1%
Cc1ccc(C(=O)Nc2c(C)cc(-c3ccc(Cl)cc3)oc2=O)cc1	4.39%
Cn1c(O)c(C2=c3ccccc3=NC2=O)sc1=Nc1ccc(Cl)cc1	24.1%
COc1ccc(/C=N/Nc2nc3ccccc3o2)cc1OC	16.9%
COc1ccc(C2/C=C\CN(Cc3ccco3)CC(=O)N2Cc2ccc(F)cc2)cc1 (centres unmarked)	9.08%
O=c1[nH]c(=O)n(CCc2ccccc2)c(O)c1C=NCc1ccc2c(c1)OCO2	14%
Cc1nc(Nc2ccc(Cl)cc2)c2oc3ccccc3c2n1	8.9%
Cc1cc(C)c(NC(=O)CSc2nc3ccc(NC(=O)CSc4nnnn4Cc4ccccc4)cc3s2)c(C)c1	4.96%
Cn1c(=O)c2c(-c3ccccc3)n3c4ccccc4ncc3c2n(C)c1=O	-3.46%
CC(C)COC(=O)C1[C@H]2C(=O)N(Cc3cccs3)C[C@]23C=C[C@H]1O3 (some centres unmarked)	12.3%
CCCCOc1cccc(C(=O)N(Cc2ccco2)C2CCS(=O)(=O)C2)c1 (centres unmarked)	9.71%
CCN(CC(=O)Nc1ccccc1OC)C(=O)c1cccc(-n2cccc2)c1	9.03%
CN1CCCN(C(=O)CC2(CC(=O)O)CCCC2)CC1.Cl	10.6%
CCCCCCCCCCOC(=O)c1csc2nnsc12	0.201%
N#Cc1ccc(C(=O)Nc2ccc([N+](=O)[O-])cc2)c(F)c1	13.1%
CC(C)NS(=O)(=O)c1ccc(OCC(=O)Nc2cccc(F)c2)cc1	2.49%
CN(C)/C=C/C(=O)c1cccc(Oc2ncccn2)c1	9.36%

Compound	hERG current change (%, negative = inhibition) at 1uM
COc1ccc(N2CC(C(=O)OCC(=O)NCc3ccccc3)CC2=O)cc1 (centres unmarked)	-9.59%
Cc1ccc(N(C(C)C(=O)Nc2ccc(S(=O)(=O)N3CCOCC3)cc2)S(C)(=O)=O)cc1C (centres unmarked)	10.3%
COc1ccc(C2=NS(=O)(=O)N(C)C(C(=O)N3CCCCC3C)=C2)cc1 (centres unmarked)	-0.279%
COC(=O)c1c(C)oc(C)c1S(=O)(=O)NCc1cccs1	9.03%
COc1ccc(NC(=S)Nc2cccc(C(C)=O)c2)cc1OC	0.566%
O=C1CC(=O)N(Cc2cccs2)C(=O)N1	5.59%
CCOC(=O)c1cc(NC(=O)CCC(=O)O)ccc1N1CCCCC1	16.5%
CCOC(=O)c1c(S(=O)(=O)NCCc2ccco2)c(C)n(C)c1C	8.95%
CCn1nc(CC(=O)Nc2nnc(CC(=O)N3CCOCC3)s2)c2ccccc2c1=O	15.3%
COc1cc(/C=C/C(=O)OCC(=O)NC(=O)NCc2ccccc2)ccc1OCC#N	8.33%
COc1ccccc1C(C)NC(=O)CN(C)CC(=O)Nc1c(C)cccc1C (centres unmarked)	1.01%
COc1ccc(N(Cc2cc(=O)[nH]c3ccccc23)C(=O)C(C)C)cc1	3.64%
COc1ccccc1[C@@H]1C(c2cccc(C)c2)=NN(c2ccccc2)[C@H]1C(=O)N1CCOC1=O	6.93%
O=S(=O)(c1ccc(Cl)cc1)N1CCN(C2CCCCCC2)CC1	1.61%
COc1ccc(NC(=O)CSc2ccc3nnc(-c4cccnc4)n3n2)c(OC)c1	2.46%
O=C(c1ccc(F)cc1)N1CCC2(CC1)OCCO2	17.4%
O=C(O)CN(c1ccc(F)cc1)S(=O)(=O)c1ccc2c(c1)OCCO2	-2.77%
Oc1ccc2oc3c(c2c1/C=N/n1cnnc1)CCCC3	-7.1%
O=C(NC1CCCCC1)c1cnn2c(C(F)(F)F)cc(-c3ccco3)nc12	-7.98%
COc1cc(NS(=O)(=O)c2ccc(NC(=S)NC(C)=O)cc2)nc(OC)n1	17%
O=C(NCCCN1CCOCC1)c1cc2cc(Br)ccc2oc1=O	3.72%
O=C(NCCC1=CCCCC1)c1cc(-c2ccncc2)nc2ccccc12	8.31%

Compound	hERG current change (%, negative = inhibition) at 1uM
COC(=O)c1cc(CNC(=O)c2ccc(S(=O)(=O)N(C)c3ccccc3)cc2)ccc1OC	7.08%
OCC[C@@H]1C[C@@H](O)[C@H](O)[C@]2(Cc3ccccc3O2)O1	19.1%
CCc1cccc(NC(=O)CCCn2nc(CC)n3c(cc4occc43)c2=O)c1	4.68%
Cc1cccc(CSC2=NCCN2S(=O)(=O)c2ccc(F)cc2)c1	3.05%
Cl.NC(CO)C(=O)NNCc1ccc(O)c(O)c1O (centres unmarked)	13.1%
COC(=O)C1=C(C)N(Cc2ccccc2)C(=NCCc2ccccn2)N[C@H]1c1cccc(F)c1	-14.2%
Br.N=C1CCCN1CC(=O)c1ccc(Br)cc1	-0.319%
CC(CNC(=O)c1ccccc1[N+](=O)[O-])NC(=O)c1ccccc1[N+](=O)[O-] (centres unmarked)	13.5%
CCOc1ccccc1N1CCN(CC(=O)c2c(N)n(C)c(=O)n(C)c2=O)CC1	8.99%
CC(=O)Nc1ccc(S(=O)(=O)NCC(=O)OCC(=O)NNC(=O)c2ccccc2)cc1	5.9%
CN(C)/C=C(\C#N)S(=O)(=O)c1ccc(Cl)cc1	9.98%
O=C(NC1CCCCC1)c1cc(-n2cnnc2)ccc1Cl	11.2%
O=C(COC(=O)c1ccccc1NC(=O)c1ccco1)NC1CC1	-0.487%
CNC(=O)NC(=O)C(NC1CCCc2ccccc21)c1ccccc1 (centres unmarked)	13.5%
Cc1ccc(-n2c(CNc3cccc(Cl)c3)n[nH]c2=S)cc1	12.8%
CC(C)c1ccc(NC(=O)C2CCCN2S(=O)(=O)c2ccccc2F)cc1 (centres unmarked)	10.7%
N#C/C(=C(/O)COC(=O)CSc1ccc2ccccc2c1)c1nc2ccccc2[nH]1	8.5%
COc1cccc(NC(=S)N(CCN(C)C)C(C)c2cccnc2)c1 (centres unmarked)	16.5%
COc1ccc(N(CC(=O)NCc2ccco2)S(C)(=O)=O)cc1	8.8%
CCCCN(CCCC)S(=O)(=O)c1ccc(NC(=O)c2cccs2)cc1	8.4%
CC(C)c1ccc(C(=O)N2CCCN(C(=O)c3ccc(C(C)C)cc3)CC2)cc1	4.35%
O=C(CCCC(=O)OCC(Cl)=C(Cl)Cl)Nc1cccc2ccccc12	12.9%

Compound	hERG current change (%, negative = inhibition) at 1uM
COc1ccc(NC(=O)CO/N=C/C(=O)Nc2ccccc2C)c([N+](=O)[O-])c1	2.96%
COCCNC(=O)c1cc(-c2ccccc2)n(CC2CC(c3ccc(OC)cc3)=NO2)n1 (centres unmarked)	1.17%
CCOC(=O)c1[nH]c(C)c(C(=O)N2CCN(c3ccccc3)CC2)c1C	-3.94%
CC(C)(C)c1nn2cnnc2n(/N=C/c2ccccc2)c1=O	4.2%
CC(Cc1ccccc1)C(=O)NCc1ccccn1 (centres unmarked)	4.46%
CCc1nnc(NS(=O)(=O)c2ccc(N/C=C\C(=O)c3ccc(C)cc3)cc2)s1	10.8%
CC(C)CC1=C/C(=C/c2ccc(-c3ccccc3)o2)C(=O)O1	3.31%
O=C(OCC(=O)N1CCc2ccccc21)c1c2c(nc3ccccc13)CCCC2	8.64%
CCOCCCN(C(=O)c1snc(C(N)=O)c1N)C(C(=O)NC1CCCC1)c1ccc(OC)cc1 (centres unmarked)	-23.6%
CCOc1nc(-c2ccccc2)ccc1-c1noc(-c2ccco2)n1	13.5%
Cc1nc(-c2cccc(C(F)(F)F)c2)sc1C(=O)O	12.6%
Cc1ccc(S(=O)(=O)N2CCCC2)cc1[N+](=O)[O-]	-5.99%
COc1ccccc1Oc1coc2c(CN3CCN(C)CC3)c(O)ccc2c1=O	9.69%
CCOC(=O)C1CCN(C(=O)/C=C/c2ccccc2)CC1	8.51%
C#CCOCCOCCOCCNc1nc(N2CCN(C(=O)C([C@@H](C)CC)n3cc(C(N)CC(C)C)nn3)CC2)nc(N2CCN(C(=O)[C@H](CCCCN)n3cc(C(N)COC(=O)C(F)(F)F)nn3)CC2)n1.Cl (some centres unmarked)	0.453%
COc1ccc(OC)c(S(=O)(=O)NCCCN2CCCC2=O)c1	10.2%
CCC(=O)N1CCN(c2ccc(Cl)cc2NC(=O)c2ccc(Br)o2)CC1	-2.05%
CCN(CC)S(=O)(=O)c1ccc(/C=C/C(=O)N(c2ccccn2)C2CCCCC2)cc1	4.46%
O=C(NCC(c1ccco1)N1CCCCC1)c1cccc(S(=O)(=O)Nc2ccccc2Cl)c1 (centres unmarked)	1.64%
CCOC(=O)c1c(-c2ccccc2)csc1NC(=O)c1ccc(S(=O)(=O)N2CC(C)OC(C)C2)cc1 (centres unmarked)	3.62%

Reference: publication PMC4336329 (PLoS ONE, 2015)
